Assay results: PubChem BioAssay AID485364 (National Center for Advancing Translational Sciences (NCATS), 2010)
The campaign covered roughly 360,000 compounds. About 11,000 (3.1%) were called active. Inconclusive results, whose numbers are uncertain, are shown with a selection of clear calls. Calls come from the whole dose curve; as a rule, active = well fitted inhibition curve with a large enough effect; inconclusive = small, poorly fitted or top-dose-only effect; inactive = no such curve, though single readings can be large or run the other way. Potencies of inconclusive entries are left out as doubtful fits.

Target: Schistosoma mansoni thioredoxin glutathione reductase (TGR) (UniProt Q962Y6)
Assay: qHTS Assay for the Inhibitors of Schistosoma Mansoni Peroxiredoxins; note: nearly all actives have a fitted effect of over 60% in size
Settings: purified TGR, DTNB reduction, TNB absorbance 405 nm; series mostly up to 114 µM
Procedure, shortened: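 First, TGR (20 nM dispensed) and NADPH were mixed with compound. Second, a 15 min room-temperature incubation followed. Third, further NADPH and then DTNB were added to start the reaction. Finally, TNB absorbance was monitored kinetically.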
Potency is the fitted concentration of half-maximal effect; tags give direction and shape of the fitted curve.

SMILES	Potency
C=CCNC(=S)/N=c1/ccccn1C	inconclusive [inhibitor, full curve]
CCOC(=O)N1CCN(c2cc(=O)n(-c3cccc(Br)c3)c(=O)[nH]2)CC1	inconclusive [inhibitor, full curve]
Cc1cc(C)n(CCc2nc(-c3ccc(C(C)(C)C)cc3)cs2)n1	inactive
CC12CCC(=O)N1C(C(=O)NCCc1ccc(S(N)(=O)=O)cc1)CS2 (stereo not given)	inconclusive [inhibitor, full curve, poor fit]
O=C1NC(=S)NC(=O)C12C(c1ccccc1)NC(=S)NC2c1ccccc1 (stereo not given)	inconclusive [inhibitor, partial curve]
CCOC(=O)C1=C(C)OC(N)=C(C#N)C1c1ccsc1 (stereo not given)	inconclusive [inhibitor, partial curve]
CCc1ccc2[nH]c(=O)c(C3C(C#N)=C(N)Oc4c3ccc3cccnc43)cc2c1 (stereo not given)	inconclusive [inhibitor, full curve]
O=C(Cc1ccccc1C(=O)O)Nc1cccc2ccccc12	inconclusive [inhibitor, single point]
CC(C(O)c1ccccc1)N(C)CCn1cnc2c1c(=O)n(C)c(=O)n2C (stereo not given)	inconclusive [inhibitor, single point]
COc1ccc(NC(=O)CSc2ccccc2)cn1	inconclusive [inhibitor, partial curve]
C=CCOc1cccc(C2/C(=C(\O)c3ccc(F)cc3)C(=O)C(=O)N2CCN(C)C)c1 (stereo not given)	inconclusive [inhibitor, partial curve]
CCN(C(=O)CSc1nnc(C)n2c1cc1occc12)c1ccccc1	inactive
CCN(CC(=O)Nc1ccc(Cl)c(S(=O)(=O)N(C)C)c1)Cc1nc2ccccc2c(=O)[nH]1	active: 39.8 µM
CS(=O)(=O)c1nc(S(=O)(=O)c2ccc(Cl)cc2)c(N2CCC3(CC2)OCCO3)s1	inconclusive [inhibitor, partial curve]
NS(=O)(=O)c1ccc(N=Nc2ccc(O)c3ncccc23)cc1	active: 56.2 µM
C=CCNCC#CCOc1ccc(OC)cc1	inconclusive [inhibitor, partial curve]
Cc1nnc(C)c2c(C)n(C(c3ccccc3)c3ccccc3)c(C)c12	inconclusive [inhibitor, full curve]
Cc1nccc(-c2cc(-c3ccc(Cl)cc3Cl)no2)n1	inactive
O=S(=O)(c1ccc(Cl)cc1)c1ccc(Cl)cc1	inactive
COc1ccc([C@H]2CC(=O)C=C(c3cccc(C(C)C)c3)C2)cc1	inconclusive [inhibitor, partial curve]
